Laboratory results: PMC6656915, “The MmpL3 interactome reveals a complex crosstalk between cell envelope biosynthesis and cell elongation and division in mycobacteria” (Scientific Reports, 2019)
No constants are given. Whether binding was seen depends on the method and setting. Some binding calls cover weakened binding; strength is not graded here. Tags and fused reporters may be left off the sequences shown.

The chains behind the UniProt entries cited, without tags or fusion partners. Residues count along the entry.
UniProt P9WQP3, residues 44-338: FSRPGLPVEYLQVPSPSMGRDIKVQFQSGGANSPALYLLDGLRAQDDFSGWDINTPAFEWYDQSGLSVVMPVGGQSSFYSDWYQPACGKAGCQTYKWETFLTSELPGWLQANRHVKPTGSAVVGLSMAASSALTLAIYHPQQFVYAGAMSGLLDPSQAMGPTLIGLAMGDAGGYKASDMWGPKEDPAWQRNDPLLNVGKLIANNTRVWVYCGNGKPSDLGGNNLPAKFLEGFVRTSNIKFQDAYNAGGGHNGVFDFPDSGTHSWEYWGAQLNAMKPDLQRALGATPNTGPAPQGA
UniProt P9WQP1, residues 41-325: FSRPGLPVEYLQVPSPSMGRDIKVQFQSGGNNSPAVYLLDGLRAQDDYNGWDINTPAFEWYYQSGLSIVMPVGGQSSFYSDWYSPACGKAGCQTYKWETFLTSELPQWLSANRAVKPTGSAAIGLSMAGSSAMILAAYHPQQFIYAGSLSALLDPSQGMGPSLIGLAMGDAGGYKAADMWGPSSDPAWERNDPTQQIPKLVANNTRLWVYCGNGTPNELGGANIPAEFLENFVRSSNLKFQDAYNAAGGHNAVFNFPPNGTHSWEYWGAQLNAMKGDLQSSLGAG
UniProt P9WQN9, residues 46-340: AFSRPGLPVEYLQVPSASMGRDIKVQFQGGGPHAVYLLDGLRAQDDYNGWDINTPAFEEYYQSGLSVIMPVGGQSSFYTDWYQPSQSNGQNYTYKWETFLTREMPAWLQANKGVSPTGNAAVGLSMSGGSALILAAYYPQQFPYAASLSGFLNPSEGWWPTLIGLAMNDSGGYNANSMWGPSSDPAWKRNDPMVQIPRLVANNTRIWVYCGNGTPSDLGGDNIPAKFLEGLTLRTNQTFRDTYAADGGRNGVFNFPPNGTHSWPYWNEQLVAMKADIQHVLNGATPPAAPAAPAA
UniProt I6X8D2: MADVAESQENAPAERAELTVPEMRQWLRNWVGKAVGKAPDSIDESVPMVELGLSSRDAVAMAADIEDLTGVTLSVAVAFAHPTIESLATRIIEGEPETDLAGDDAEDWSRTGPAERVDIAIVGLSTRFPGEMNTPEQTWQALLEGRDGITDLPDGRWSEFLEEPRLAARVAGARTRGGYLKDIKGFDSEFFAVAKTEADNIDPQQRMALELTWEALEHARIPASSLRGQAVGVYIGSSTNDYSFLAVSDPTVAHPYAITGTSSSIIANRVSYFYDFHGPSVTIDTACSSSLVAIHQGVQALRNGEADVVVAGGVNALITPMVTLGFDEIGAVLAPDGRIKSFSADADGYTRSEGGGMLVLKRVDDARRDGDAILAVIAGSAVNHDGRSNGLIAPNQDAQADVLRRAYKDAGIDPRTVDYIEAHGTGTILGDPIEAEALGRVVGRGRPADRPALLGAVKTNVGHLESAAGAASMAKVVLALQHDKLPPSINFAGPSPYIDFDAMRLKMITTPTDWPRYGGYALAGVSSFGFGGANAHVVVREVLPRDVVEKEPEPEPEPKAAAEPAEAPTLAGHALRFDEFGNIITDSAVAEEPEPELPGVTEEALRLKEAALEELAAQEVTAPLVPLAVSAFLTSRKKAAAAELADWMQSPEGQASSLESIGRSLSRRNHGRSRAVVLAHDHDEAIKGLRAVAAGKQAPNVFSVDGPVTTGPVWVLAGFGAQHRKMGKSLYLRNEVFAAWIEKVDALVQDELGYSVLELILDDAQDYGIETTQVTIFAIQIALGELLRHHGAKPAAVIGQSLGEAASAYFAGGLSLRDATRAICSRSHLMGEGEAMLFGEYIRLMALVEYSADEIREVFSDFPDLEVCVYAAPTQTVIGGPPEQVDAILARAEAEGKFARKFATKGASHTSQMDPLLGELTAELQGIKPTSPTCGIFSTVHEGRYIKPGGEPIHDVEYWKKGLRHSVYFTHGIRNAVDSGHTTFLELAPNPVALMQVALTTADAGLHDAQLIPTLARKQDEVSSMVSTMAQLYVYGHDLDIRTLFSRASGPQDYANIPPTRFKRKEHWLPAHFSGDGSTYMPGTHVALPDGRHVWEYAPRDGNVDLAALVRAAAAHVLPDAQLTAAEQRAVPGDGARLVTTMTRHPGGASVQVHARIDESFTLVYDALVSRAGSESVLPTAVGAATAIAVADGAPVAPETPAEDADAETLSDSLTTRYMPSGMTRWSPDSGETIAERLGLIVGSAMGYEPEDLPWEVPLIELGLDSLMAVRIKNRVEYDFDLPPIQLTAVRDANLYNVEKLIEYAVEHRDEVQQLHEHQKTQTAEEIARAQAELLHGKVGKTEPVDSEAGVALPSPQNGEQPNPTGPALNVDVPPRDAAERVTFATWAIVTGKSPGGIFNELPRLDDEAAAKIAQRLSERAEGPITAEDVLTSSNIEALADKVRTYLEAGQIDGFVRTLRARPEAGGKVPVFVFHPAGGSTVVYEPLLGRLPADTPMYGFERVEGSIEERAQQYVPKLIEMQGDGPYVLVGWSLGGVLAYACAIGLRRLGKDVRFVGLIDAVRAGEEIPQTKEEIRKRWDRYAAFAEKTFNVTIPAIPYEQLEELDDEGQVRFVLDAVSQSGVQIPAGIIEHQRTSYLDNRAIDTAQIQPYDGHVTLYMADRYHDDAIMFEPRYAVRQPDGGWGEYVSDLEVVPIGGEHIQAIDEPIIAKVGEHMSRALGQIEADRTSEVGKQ
UniProt I6Y748: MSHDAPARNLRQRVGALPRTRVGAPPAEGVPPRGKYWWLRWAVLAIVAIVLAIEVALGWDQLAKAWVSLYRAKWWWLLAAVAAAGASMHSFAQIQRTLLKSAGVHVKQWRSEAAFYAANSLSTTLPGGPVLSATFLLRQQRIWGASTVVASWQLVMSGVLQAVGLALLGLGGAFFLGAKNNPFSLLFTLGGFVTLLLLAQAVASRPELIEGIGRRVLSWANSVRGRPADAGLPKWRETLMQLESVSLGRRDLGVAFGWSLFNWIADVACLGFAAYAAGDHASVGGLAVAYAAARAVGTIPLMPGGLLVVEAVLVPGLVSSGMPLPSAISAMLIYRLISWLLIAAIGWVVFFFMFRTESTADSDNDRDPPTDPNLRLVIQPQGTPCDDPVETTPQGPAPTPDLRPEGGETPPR
UniProt P9WFS5: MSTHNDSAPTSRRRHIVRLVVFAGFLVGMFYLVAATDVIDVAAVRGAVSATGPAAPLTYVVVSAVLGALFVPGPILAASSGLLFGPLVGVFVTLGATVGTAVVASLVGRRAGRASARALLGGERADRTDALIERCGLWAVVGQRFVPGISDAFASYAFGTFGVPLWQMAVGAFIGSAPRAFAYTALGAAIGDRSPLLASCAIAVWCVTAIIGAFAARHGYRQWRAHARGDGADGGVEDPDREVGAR
UniProt P9WM21: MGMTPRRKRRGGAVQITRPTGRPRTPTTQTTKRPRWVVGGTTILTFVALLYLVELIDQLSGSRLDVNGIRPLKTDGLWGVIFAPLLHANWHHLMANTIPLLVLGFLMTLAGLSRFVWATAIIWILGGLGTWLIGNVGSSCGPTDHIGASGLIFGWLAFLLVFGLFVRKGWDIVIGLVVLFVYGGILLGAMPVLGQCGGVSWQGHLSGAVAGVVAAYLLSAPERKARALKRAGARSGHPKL
UniProt I6X7F2: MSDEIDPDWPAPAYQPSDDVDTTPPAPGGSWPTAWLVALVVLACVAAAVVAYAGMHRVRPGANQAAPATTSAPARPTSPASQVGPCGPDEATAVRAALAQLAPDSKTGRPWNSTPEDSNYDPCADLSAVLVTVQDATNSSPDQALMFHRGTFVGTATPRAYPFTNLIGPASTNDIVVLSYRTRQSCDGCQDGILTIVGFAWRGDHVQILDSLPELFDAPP
UniProt O05436: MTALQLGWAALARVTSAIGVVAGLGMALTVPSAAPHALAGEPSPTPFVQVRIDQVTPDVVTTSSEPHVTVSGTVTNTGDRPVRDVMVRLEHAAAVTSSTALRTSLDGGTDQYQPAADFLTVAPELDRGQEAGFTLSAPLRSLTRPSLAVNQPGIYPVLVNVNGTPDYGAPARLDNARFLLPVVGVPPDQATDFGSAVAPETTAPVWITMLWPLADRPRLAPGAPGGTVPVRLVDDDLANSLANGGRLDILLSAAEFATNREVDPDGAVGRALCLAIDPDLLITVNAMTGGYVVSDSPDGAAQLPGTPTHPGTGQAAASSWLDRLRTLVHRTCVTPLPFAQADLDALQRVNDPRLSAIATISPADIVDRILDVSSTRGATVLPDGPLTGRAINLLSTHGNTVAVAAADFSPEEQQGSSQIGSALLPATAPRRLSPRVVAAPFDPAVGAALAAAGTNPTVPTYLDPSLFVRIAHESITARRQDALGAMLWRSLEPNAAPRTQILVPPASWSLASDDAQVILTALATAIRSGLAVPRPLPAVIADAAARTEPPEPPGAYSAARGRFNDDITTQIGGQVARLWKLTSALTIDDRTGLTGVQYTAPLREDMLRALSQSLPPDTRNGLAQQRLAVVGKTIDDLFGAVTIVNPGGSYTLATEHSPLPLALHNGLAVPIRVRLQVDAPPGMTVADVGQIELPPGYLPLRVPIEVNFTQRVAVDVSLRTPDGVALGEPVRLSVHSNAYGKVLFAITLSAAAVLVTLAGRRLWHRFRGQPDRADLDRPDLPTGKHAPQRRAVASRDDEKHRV

T1: MmpL3 protein from M. tuberculosis, C-terminally hexahistidine-tagged, devoid of gfp fusion (M. tuberculosis) (UniProt P9WJV5)
T1 sequence: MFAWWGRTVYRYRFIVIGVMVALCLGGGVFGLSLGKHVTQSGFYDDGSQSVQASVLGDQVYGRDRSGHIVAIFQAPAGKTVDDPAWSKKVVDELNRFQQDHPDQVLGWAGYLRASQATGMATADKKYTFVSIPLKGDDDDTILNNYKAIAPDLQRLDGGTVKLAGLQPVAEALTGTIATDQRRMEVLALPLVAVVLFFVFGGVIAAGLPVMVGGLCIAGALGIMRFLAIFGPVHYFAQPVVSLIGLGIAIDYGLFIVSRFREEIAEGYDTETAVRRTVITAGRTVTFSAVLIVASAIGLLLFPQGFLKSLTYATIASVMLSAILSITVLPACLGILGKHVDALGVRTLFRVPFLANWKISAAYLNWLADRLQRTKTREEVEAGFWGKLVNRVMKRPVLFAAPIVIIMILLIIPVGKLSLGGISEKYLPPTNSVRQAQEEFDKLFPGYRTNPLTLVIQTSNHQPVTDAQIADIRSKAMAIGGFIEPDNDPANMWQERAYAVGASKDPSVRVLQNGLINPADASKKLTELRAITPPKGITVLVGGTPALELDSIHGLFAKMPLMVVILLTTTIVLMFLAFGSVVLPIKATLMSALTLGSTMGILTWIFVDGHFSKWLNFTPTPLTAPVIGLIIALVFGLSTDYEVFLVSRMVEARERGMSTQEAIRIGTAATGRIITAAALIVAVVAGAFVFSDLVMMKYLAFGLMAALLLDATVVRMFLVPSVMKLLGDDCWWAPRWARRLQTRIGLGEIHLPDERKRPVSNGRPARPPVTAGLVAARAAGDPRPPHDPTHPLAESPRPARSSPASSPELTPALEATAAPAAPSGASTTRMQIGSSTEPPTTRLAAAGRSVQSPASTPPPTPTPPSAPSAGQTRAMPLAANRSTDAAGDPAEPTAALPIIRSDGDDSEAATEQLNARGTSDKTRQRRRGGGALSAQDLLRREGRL

T2: MmpL3 (full-size), T18/T25 fusion (M. tuberculosis) (UniProt P9WJV5)
T2 sequence: T1 sequence

T3: MmpL3 from M. tuberculosis, C-terminally hexahistidine-tagged, purified (M. tuberculosis) (UniProt P9WJV5)
T3 sequence: T1 sequence

B1: LprC devoid of its first 21 amino acids, with N-terminal hexahistidine tag (domain or fragment, UniProt A5U1X3 22-180)
chain: TKSISGTAVKAGGAGVPRNNNSQERYPNLLKECEVLTTDILAKTVGADPLDIQSTFVGAICRWQAANPAGLIDITRFWFEQGSLSNERKVAEGLKYQVETRAIQGVDSIVMRTGDPNGACGVASDAAGVVGWWVNPQAPGIDACGQAIKLMELTLATNA
B2: CrgA, T18/T25 fusion (protein, UniProt P9WP57 1-93)
chain: MPKSKVRKKNDFTVSAVSRTPMKVKVGPSSVWFVSLFIGLMLIGLIWLMVFQLAAIGSQAPTALNWMAQLGPWNYAIAFAFMITGLLLTMRWH
B3: Rv0207c, T18/T25 fusion (protein, UniProt P96389 1-242)
chain: MSLTEDVTSQTSESLARHSVLAEDLSQDGLTSLGAPGARVLLVWDAPNLDMGLGSILGRRPTALERPRFDALGRWLLARTAEIVAGRPGISTEPEATVFTNIAPGSAEVVRPWVDALRNVGFAVFAKPKVDEDSDVDRDMLAHIDERYREGLAALVVASADGQAFRQPLEAVARSGTPVQVLGFREHASWALASDTLEFVDLEDIAGVFREPLPRIGLDSLPEQGAWLQPFRPLSSLLTSRV
B4: MmpL3 (full-size), T18/T25 fusion (protein, UniProt P9WJV5 1-944)
chain: T1 sequence
B5: CrgA from M. tuberculosis H37Rv, C-terminal hexahistidine tag, purified (protein, UniProt P9WP57 1-93)
chain: B2 chain
B6: Rv0207c from M. tuberculosis H37Rv, C-terminal hexahistidine tag, purified (protein, UniProt P96389 1-242)
chain: B3 chain
B7: FadD32, T18/T25 fusion (protein, UniProt O53580 1-637)
chain: MFVTGESGMAYHNPFIVNGKIRFPANTNLVRHVEKWAKVRGDKLAYRFLDFSTERDGVARDILWSDFSARNRAVGARLQQVTQPGDRVAILCPQNLDYLISFFGALYSGRIAVPLFDPAEPGHVGRLHAVLDDCAPSTILTTTDSAEGVRKFIRARSAKERPRVIAVDAVPTEVAATWQQPEANEETVAYLQYTSGSTRIPSGVQITHLNLPTNVVQVLNALEGQEGDRGVSWLPFFHDMGLITVLLASVLGHSFTFMTPAAFVRRPGRWIRELARKPGETGGTFSAAPNFAFEHAAVRGVPRDDEPPLDLSNVKGILNGSEPVSPASMRKFFEAFAPYGLKQTAVKPSYGLAEATLFVSTTPMDEVPTVIHVDRDELNNQRFVEVAADAPNAVAQVSAGKVGVSEWAVIVDADTASELPDGQIGEIWLHGNNLGTGYWGKEEESAQTFKNILKSRISESRAEGAPDDALWVRTGDYGTYFKDHLYIAGRIKDLVIIDGRNHYPQDLECTAQESTKALRVGYAAAFSVPANQLPQTVFDDSHAGLKFDPEDTSEQLVIVGERAAGTHKLDHQPIVDDIRAAIAVGHGVTVRDVLLVSAGTIPRTSSGKIGRRACRAAYLDGSLRSGVGSPTVFATSD

Legend:
[1] = target: T1, MmpL3 protein from M. tuberculosis, C-terminally hexahistidine-tagged, devoid of gfp fusion (M. tuberculosis); assay: SPR; MmpL3 immobilised on CM5 chip; analytes injected at two-fold increasing concentrations from 0.6 µM up to 10 µM, 10 µL/min for 30 sec, dissociation 180 sec, 25 °C; 20 mM HEPES pH 7.4, 150 mM NaCl, 0.2% Triton X-100 (0.03% DDM instead for AftD); global fit to the 1:1 Langmuir binding model; both purified
[2] = target: T2, MmpL3 (full-size), T18/T25 fusion (M. tuberculosis); assay: two-hybrid
[3] = target: MmpL3tb^1–744, T18/T25 fusion (M. tuberculosis) (UniProt P9WJV5); assay: two-hybrid
[4] = target: T3, MmpL3 from M. tuberculosis, C-terminally hexahistidine-tagged, purified (M. tuberculosis); assay: BLI; Bio-layer interferometry; data not shown; both purified
[5] = target: T3, MmpL3 from M. tuberculosis, C-terminally hexahistidine-tagged, purified (M. tuberculosis); assay: SPR; MmpL3 immobilised on CM5 chip; analytes injected at increasing concentrations (0.6 to 10 μM for AftD, Rv0207c, CrgA), 10 μL/min for 30 sec, 180 sec dissociation; 25 °C; 20 mM HEPES pH 7.4, 150 mM NaCl, 0.2% Triton X-100 (0.03% DDM instead for AftD); 1:1 model; both purified

| Molecule | binding [2] | binding [3] | also measured |
| --- | --- | --- | --- |
| FbpA mycolyltransferase (Ag85 complex), native purified protein (from UniProt P9WQP3 44-338) (enzyme) |  |  | binding [1]: no binding (tested: 10 µM) |
| FbpB mycolyltransferase (Ag85 complex), native purified protein (from UniProt P9WQP1 41-325) (enzyme) |  |  | binding [1]: no binding (tested: 10 µM) |
| FbpC mycolyltransferase (Ag85 complex), native purified protein (from UniProt P9WQN9 46-340) (enzyme) |  |  | binding [1]: no binding (tested: 10 µM) |
| LppT, T18/T25 fusion (from UniProt A5U3G6 1-63) | binds | binds |  |
| MT2653, T18/T25 fusion (from UniProt Q8VJF5 1-48) | binds | binds |  |
| MmpL3tb^1–744, T18/T25 fusion (from UniProt P9WJV5 1-744) (domain or fragment) | binds | binds |  |
| Pks13 from M. tuberculosis H37Rv with C-terminal hexahistidine tag (from UniProt I6X8D2 1-1733) (enzyme) |  |  | binding [1]: no binding (tested: 10 µM) |
| Pks13, T18/T25 fusion (from UniProt I6X8D2 1-1733) | no binding |  |  |
| Rv0204c, T18/T25 fusion (from UniProt I6Y748 1-412) | binds | binds |  |
| Rv0227c, T18/T25 fusion (from UniProt P96409 1-421) | binds | binds |  |
| Rv0625c, T18/T25 fusion (from UniProt P9WFS5 1-246) | binds | binds |  |
| Rv1337, T18/T25 fusion (from UniProt P9WM21 1-240) | binds | binds |  |
| Rv1457c, T18/T25 fusion (from UniProt O86349 1-261) | binds | binds |  |
| Rv2169c, T18/T25 fusion (from UniProt O53503 1-134) | binds | binds |  |
| Rv3064c, T18/T25 fusion (from UniProt I6XG31 1-141) | binds | binds |  |
| Rv3271c, T18/T25 fusion (from UniProt P96876 1-222) | binds | binds |  |
| Rv3483c, T18/T25 fusion (from UniProt I6X7F2 1-220) | binds | binds |  |
| Rv3909, T18/T25 fusion (from UniProt O05436 1-802) | binds | binds |  |
| B1 |  |  | binding [1]: no binding (tested: 10 µM) |
| B2 | binds | binds |  |
| B3 | binds | binds |  |
| B4 | binds |  |  |
| B5 |  |  | binding [4]: binds; binding [5]: binds |
| B6 |  |  | binding [4]: binds; binding [5]: binds |
| B7 | no binding |  |  |
